This passage reports cell count results from the supplement of paper PMC4604168 (melanoma cell lines).

The list shows a part of the results. Most values come without repeats; read them as rough.
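Further: cells treated in 1,536-well plates, then fixed and DAPI-stained, with nuclei counted from automated high-throughput microscope images.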

The test concerns WM1716. The experiment in a line: cell count relative to DMSO control; melanoma cells; higher = more viable cells. The settings on record: library dose: standard library concentration; 72 h.
For `CC[C@]1(O)C[C@H]2CN(CCc3c([nH]c4ccccc34)[C@@](C(=O)OC)(c3cc4c(cc3OC)N(C=O)[C@H]3[C@@](O)(C(=O)OC)[C@H](OC(C)=O)[C@]5(CC)C=CCN6CC[C@]43[C@@H]65)C2)C1` [vincristine] + CO[C@@H]1[C@H](N(C)C(=O)c2ccccc2)C[C@H]2O[C@]1(C)n1c3ccccc3c3c4c(c5c6ccccc6n2c5c31)C(=O)NC4 [Midostaurin] (first compound 0.0005 µM, partner dose 0.4 µM), the cell count is 39.2%.

Take `N#CC[C@H](C1CCCC1)n1cc(-c2ncnc3[nH]ccc23)cn1` [ruxolitinib] + CN1CCN(c2ccc3nc(-c4c(N)c5c(F)cccc5[nH]c4=O)[nH]c3c2)CC1 [Dovitinib] (first compound 5 µM, partner dose 0.5 µM): the cell count was found to be 68.7%.

For the compound `N#CC[C@H](C1CCCC1)n1cc(-c2ncnc3[nH]ccc23)cn1` [ruxolitinib] + CN(C)S(=O)(=O)c1ccc2c(c1)/C(=C/c1cc3c([nH]1)CCCC3)C(=O)N2 [SU6656] (first compound 5 µM, partner dose 2 µM), the cell count amounted to 72.2%.

Consider `Cc1cc(Nc2cc(N3CCN(C)CC3)nc(Sc3ccc(NC(=O)C4CC4)cc3)n2)n[nH]1` [Tozasertib] + O=C(Nc1cccc(Cl)c1)Nc1ncc(CCNc2ncnc3ccsc23)s1 [SNS314] (first compound 0.03 µM, partner dose 0.004 µM), for which the cell count is 38%.

As to `CC[C@]1(O)C[C@H]2CN(CCc3c([nH]c4ccccc34)[C@@](C(=O)OC)(c3cc4c(cc3OC)N(C=O)[C@H]3[C@@](O)(C(=O)OC)[C@H](OC(C)=O)[C@]5(CC)C=CCN6CC[C@]43[C@@H]65)C2)C1` [vincristine] + COc1ccc(Cl)c(Nc2nc3ccccc3nc2NS(=O)(=O)c2cccc(NC(=O)C(C)(C)N)c2)c1 [XL147] (first compound 0.0005 µM, partner dose 4 µM), the cell count was determined as 47.1%.

In turn, `CC[C@]1(O)C[C@H]2CN(CCc3c([nH]c4ccccc34)[C@@](C(=O)OC)(c3cc4c(cc3OC)N(C=O)[C@H]3[C@@](O)(C(=O)OC)[C@H](OC(C)=O)[C@]5(CC)C=CCN6CC[C@]43[C@@H]65)C2)C1` [vincristine] + CO[C@H]1C[C@@H]2CC[C@@H](C)[C@@](O)(O2)C(=O)C(=O)N2CCCC[C@H]2C(=O)O[C@H]([C@H](C)C[C@@H]2CC[C@@H](OCCO)[C@H](OC)C2)CC(=O)[C@H](C)/C=C(\C)[C@@H](O)[C@@H](OC)C(=O)[C@H](C)C[C@H](C)/C=C/C=C/C=C/1C [everolimus] (first compound 0.0005 µM, partner dose 0.1 µM) had a cell count of 62.6%.

In the case of `N#CC[C@H](C1CCCC1)n1cc(-c2ncnc3[nH]ccc23)cn1` [ruxolitinib] + c1cc(-c2cnn3cc(-c4ccc(OCCN5CCCCC5)cc4)cnc23)ccn1 [Dorsomorphin] (first compound 5 µM, partner dose 2 µM), the cell count came to 57.7%.

On to `Cc1cc(Nc2cc(N3CCN(C)CC3)nc(Sc3ccc(NC(=O)C4CC4)cc3)n2)n[nH]1` [Tozasertib] + C[C@@H]1CCN(C(=O)CC#N)C[C@@H]1N(C)c1ncnc2[nH]ccc12 [CP690550] (first compound 0.03 µM, partner dose 5 µM), for which the cell count was found to be 89.1%.

The compound `N#CC[C@H](C1CCCC1)n1cc(-c2ncnc3[nH]ccc23)cn1` [ruxolitinib] + O=c1[nH]nc(Sc2ncc([N+](=O)[O-])s2)n1-c1ccc2c(c1)OCCO2 [BI78D3] (first compound 5 µM, partner dose 1 µM) displayed a cell count of 76.4%.

The compound `N#CC[C@H](C1CCCC1)n1cc(-c2ncnc3[nH]ccc23)cn1` [ruxolitinib] + OCCn1cc(-c2cnc3nnn(Cc4ccc5ncccc5c4)c3n2)cn1 [PF04217903] (first compound 5 µM, partner dose 5 µM) registered a cell count of 77.9%.

On to `CC[C@]1(O)C[C@H]2CN(CCc3c([nH]c4ccccc34)[C@@](C(=O)OC)(c3cc4c(cc3OC)N(C=O)[C@H]3[C@@](O)(C(=O)OC)[C@H](OC(C)=O)[C@]5(CC)C=CCN6CC[C@]43[C@@H]65)C2)C1` [vincristine] + O=C(CCCCCCC(=O)Nc1ccccc1)NO [vorinostat] (first compound 0.0005 µM, partner dose 0.4 µM), for which the cell count came to 45.9%.

On to `N#CC[C@H](C1CCCC1)n1cc(-c2ncnc3[nH]ccc23)cn1` [ruxolitinib] + O=C1NC(=O)/C(=C/c2ccc(-c3ccc(F)cc3O)o2)S1 [AS252424] (first compound 5 µM, partner dose 5 µM), for which the cell count stood at 96.2%.

For `CC[C@]1(O)C[C@H]2CN(CCc3c([nH]c4ccccc34)[C@@](C(=O)OC)(c3cc4c(cc3OC)N(C=O)[C@H]3[C@@](O)(C(=O)OC)[C@H](OC(C)=O)[C@]5(CC)C=CCN6CC[C@]43[C@@H]65)C2)C1` [vincristine] + O=C1NC(=O)/C(=C/c2ccc(-c3ccc(F)cc3O)o2)S1 [AS252424] (first compound 0.0005 µM, partner dose 5 µM), the cell count was 46.8%.

Regarding `N#CC[C@H](C1CCCC1)n1cc(-c2ncnc3[nH]ccc23)cn1` [ruxolitinib] + C[C@@H](Oc1cc(-c2cnn(C3CCNCC3)c2)cnc1N)c1c(Cl)ccc(F)c1Cl [Crizotinib] (first compound 5 µM, partner dose 1 µM), the cell count amounted to 79.4%.

`Cc1cc(Nc2cc(N3CCN(C)CC3)nc(Sc3ccc(NC(=O)C4CC4)cc3)n2)n[nH]1` [Tozasertib] + NCC(=O)Nc1ccc(-n2nc(C(F)(F)F)cc2-c2ccc3c(ccc4ccccc43)c2)cc1 [OSU03012] (first compound 0.03 µM, partner dose 5 µM) yielded a cell count of 93.6%.

As for `Cc1cc(Nc2cc(N3CCN(C)CC3)nc(Sc3ccc(NC(=O)C4CC4)cc3)n2)n[nH]1` [Tozasertib] + Cc1cc([N+](=O)[O-])ccc1NS(=O)(=O)c1cc(Cl)ccc1Cl [FH535] (first compound 0.03 µM, partner dose 5 µM), the cell count stood at 72.1%.

The compound `N#CC[C@H](C1CCCC1)n1cc(-c2ncnc3[nH]ccc23)cn1` [ruxolitinib] + CCN(CC)CCCCNc1ncc2cc(-c3cc(OC)cc(OC)c3)c(NC(=O)NC(C)(C)C)nc2n1 [PD173074] (first compound 5 µM, partner dose 0.5 µM) gave a cell count of 85.1%.

Regarding `CC[C@]1(O)C[C@H]2CN(CCc3c([nH]c4ccccc34)[C@@](C(=O)OC)(c3cc4c(cc3OC)N(C=O)[C@H]3[C@@](O)(C(=O)OC)[C@H](OC(C)=O)[C@]5(CC)C=CCN6CC[C@]43[C@@H]65)C2)C1` [vincristine] + NCC(=O)Nc1ccc(-n2nc(C(F)(F)F)cc2-c2ccc3c(ccc4ccccc43)c2)cc1 [OSU03012] (first compound 0.0005 µM, partner dose 5 µM), the cell count was determined as 62.4%.

Regarding `N#CC[C@H](C1CCCC1)n1cc(-c2ncnc3[nH]ccc23)cn1` [ruxolitinib] + Cc1nc(Nc2ncc(C(=O)Nc3c(C)cccc3Cl)s2)cc(N2CCN(CCO)CC2)n1 [dasatanib] (first compound 5 µM, partner dose 0.02 µM), the cell count is 43.5%.

Regarding `CC[C@]1(O)C[C@H]2CN(CCc3c([nH]c4ccccc34)[C@@](C(=O)OC)(c3cc4c(cc3OC)N(C=O)[C@H]3[C@@](O)(C(=O)OC)[C@H](OC(C)=O)[C@]5(CC)C=CCN6CC[C@]43[C@@H]65)C2)C1` [vincristine] + O=C(O)c1ccc(-c2c[nH]c3ncc(-c4ccccc4)cc23)cc1C1CCCC1 [GSK650394] (first compound 0.0005 µM, partner dose 0.8 µM), the cell count came out at 65.2%.
